Some of the results follow. Single values are uncertain, as repeats are few or missing.
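Also: cells treated in 1,536-well plates, then fixed and DAPI-stained, with nuclei counted from automated high-throughput microscope images.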

The test system of the experiment is SkMel28. The experiment in a line: cell count relative to DMSO control; melanoma cells; higher = more viable cells. Conditions: library dose: standard library concentration; 72 h.
Turning to `N#CC[C@H](C1CCCC1)n1cc(-c2ncnc3[nH]ccc23)cn1` [ruxolitinib] + O=C(O)c1ccc(-c2c[nH]c3ncc(-c4ccccc4)cc23)cc1C1CCCC1 [GSK650394] (first compound 5 µM, partner dose 0.8 µM), the cell count was found to be 104%. For `CC[C@]1(O)C[C@H]2CN(CCc3c([nH]c4ccccc34)[C@@](C(=O)OC)(c3cc4c(cc3OC)N(C=O)[C@H]3[C@@](O)(C(=O)OC)[C@H](OC(C)=O)[C@]5(CC)C=CCN6CC[C@]43[C@@H]65)C2)C1` [vincristine] + OCCn1cc(-c2cnc3nnn(Cc4ccc5ncccc5c4)c3n2)cn1 [PF04217903] (first compound 0.0005 µM, partner dose 5 µM) the value was 98%; for `Cc1cc(Nc2cc(N3CCN(C)CC3)nc(Sc3ccc(NC(=O)C4CC4)cc3)n2)n[nH]1` [Tozasertib] + CC1(C)NC(=O)N(c2ccc([N+](=O)[O-])c(C(F)(F)F)c2)C1=O [nilutamide] (first compound 0.03 µM, partner dose 5 µM), 82%; for `Cc1cc(Nc2cc(N3CCN(C)CC3)nc(Sc3ccc(NC(=O)C4CC4)cc3)n2)n[nH]1` [Tozasertib] + NC(=O)Nc1cc(-c2cccc(F)c2)sc1C(=O)N[C@H]1CCCNC1 [AZD7762] (first compound 0.03 µM, partner dose 0.1 µM), 24.9%. For `Cc1cc(Nc2cc(N3CCN(C)CC3)nc(Sc3ccc(NC(=O)C4CC4)cc3)n2)n[nH]1` [Tozasertib] + CN(NC(=O)CC(=O)NN(C)C(=S)c1ccccc1)C(=S)c1ccccc1 [STA4783] (first compound 0.03 µM, partner dose 0.03 µM) the value was 42.1%. For `Cc1cc(Nc2cc(N3CCN(C)CC3)nc(Sc3ccc(NC(=O)C4CC4)cc3)n2)n[nH]1` [Tozasertib] + C=CCn1c(=O)c2cnc(Nc3ccc(N4CCN(C)CC4)cc3)nc2n1-c1cccc(C(C)(C)O)n1 [MK1775] (first compound 0.03 µM, partner dose 0.1 µM) the value was 32.3%. The compound `Cc1cc(Nc2cc(N3CCN(C)CC3)nc(Sc3ccc(NC(=O)C4CC4)cc3)n2)n[nH]1` [Tozasertib] + Cc1ccc(NC(=O)c2cccc(N(C)C)c2)cc1NC(=O)c1ccc(O)cc1 [ZM336372] (first compound 0.03 µM, partner dose 10 µM) registered a cell count of 56.3%. For `CC[C@]1(O)C[C@H]2CN(CCc3c([nH]c4ccccc34)[C@@](C(=O)OC)(c3cc4c(cc3OC)N(C=O)[C@H]3[C@@](O)(C(=O)OC)[C@H](OC(C)=O)[C@]5(CC)C=CCN6CC[C@]43[C@@H]65)C2)C1` [vincristine] + C[C@@H]1CCN(C(=O)CC#N)C[C@@H]1N(C)c1ncnc2[nH]ccc12 [CP690550] (first compound 0.0005 µM, partner dose 5 µM) the value was 60.3%; for `Cc1cc(Nc2cc(N3CCN(C)CC3)nc(Sc3ccc(NC(=O)C4CC4)cc3)n2)n[nH]1` [Tozasertib] + CC(C)(C)c1cnc(CSc2cnc(NC(=O)C3CCNCC3)s2)o1 [SNS-032] (first compound 0.03 µM, partner dose 0.05 µM), 52.3%; for `CC[C@]1(O)C[C@H]2CN(CCc3c([nH]c4ccccc34)[C@@](C(=O)OC)(c3cc4c(cc3OC)N(C=O)[C@H]3[C@@](O)(C(=O)OC)[C@H](OC(C)=O)[C@]5(CC)C=CCN6CC[C@]43[C@@H]65)C2)C1` [vincristine] + C=CCn1c(=O)c2cnc(Nc3ccc(N4CCN(C)CC4)cc3)nc2n1-c1cccc(C(C)(C)O)n1 [MK1775] (first compound 0.0005 µM, partner dose 0.1 µM), 13.9%. For `CC[C@]1(O)C[C@H]2CN(CCc3c([nH]c4ccccc34)[C@@](C(=O)OC)(c3cc4c(cc3OC)N(C=O)[C@H]3[C@@](O)(C(=O)OC)[C@H](OC(C)=O)[C@]5(CC)C=CCN6CC[C@]43[C@@H]65)C2)C1` [vincristine] + Cn1cncc1[C@@](N)(c1ccc(Cl)cc1)c1ccc2c(c1)c(-c1cccc(Cl)c1)cc(=O)n2C [tipifarnib] (first compound 0.0005 µM, partner dose 0.05 µM) the value was 46%; for `N#CC[C@H](C1CCCC1)n1cc(-c2ncnc3[nH]ccc23)cn1` [ruxolitinib] + NCC(=O)Nc1ccc(-n2nc(C(F)(F)F)cc2-c2ccc3c(ccc4ccccc43)c2)cc1 [OSU03012] (first compound 5 µM, partner dose 5 µM), 20.1%.

The compound `N#CC[C@H](C1CCCC1)n1cc(-c2ncnc3[nH]ccc23)cn1` [ruxolitinib] + CC(C)(C)c1cnc(CSc2cnc(NC(=O)C3CCNCC3)s2)o1 [SNS-032] (first compound 5 µM, partner dose 0.05 µM) came in with a cell count of 82.6%. For `CC[C@]1(O)C[C@H]2CN(CCc3c([nH]c4ccccc34)[C@@](C(=O)OC)(c3cc4c(cc3OC)N(C=O)[C@H]3[C@@](O)(C(=O)OC)[C@H](OC(C)=O)[C@]5(CC)C=CCN6CC[C@]43[C@@H]65)C2)C1` [vincristine] + Cc1cc(N2CCOCC2)cc2[nH]c(-c3c(NC[C@@H](O)c4cccc(Cl)c4)cc[nH]c3=O)nc12 [BMS536924] (first compound 0.0005 µM, partner dose 1 µM), the cell count was 28.4%. For `CC[C@]1(O)C[C@H]2CN(CCc3c([nH]c4ccccc34)[C@@](C(=O)OC)(c3cc4c(cc3OC)N(C=O)[C@H]3[C@@](O)(C(=O)OC)[C@H](OC(C)=O)[C@]5(CC)C=CCN6CC[C@]43[C@@H]65)C2)C1` [vincristine] + CC(C)(C)c1cnc(CSc2cnc(NC(=O)C3CCNCC3)s2)o1 [SNS-032] (first compound 0.0005 µM, partner dose 0.05 µM) the value was 76.1%; for `N#CC[C@H](C1CCCC1)n1cc(-c2ncnc3[nH]ccc23)cn1` [ruxolitinib] + NC(=O)Nc1cc(-c2cccc(F)c2)sc1C(=O)N[C@H]1CCCNC1 [AZD7762] (first compound 5 µM, partner dose 0.1 µM), 75.8%.

As for `N#CC[C@H](C1CCCC1)n1cc(-c2ncnc3[nH]ccc23)cn1` [ruxolitinib] + O=C(Nc1cccc(Cl)c1)Nc1ncc(CCNc2ncnc3ccsc23)s1 [SNS314] (first compound 5 µM, partner dose 0.004 µM), the cell count turned out to be 56.2%. For `N#CC[C@H](C1CCCC1)n1cc(-c2ncnc3[nH]ccc23)cn1` [ruxolitinib] + CN(NC(=O)CC(=O)NN(C)C(=S)c1ccccc1)C(=S)c1ccccc1 [STA4783] (first compound 5 µM, partner dose 0.03 µM) the value was 46.3%; for `N#CC[C@H](C1CCCC1)n1cc(-c2ncnc3[nH]ccc23)cn1` [ruxolitinib] + O=C(CCCCCCC(=O)Nc1ccccc1)NO [vorinostat] (first compound 5 µM, partner dose 0.4 µM), 84.3%. For `Cc1cc(Nc2cc(N3CCN(C)CC3)nc(Sc3ccc(NC(=O)C4CC4)cc3)n2)n[nH]1` [Tozasertib] + OCCn1cc(-c2cnc3nnn(Cc4ccc5ncccc5c4)c3n2)cn1 [PF04217903] (first compound 0.03 µM, partner dose 5 µM) the value was 63.8%; for `N#CC[C@H](C1CCCC1)n1cc(-c2ncnc3[nH]ccc23)cn1` [ruxolitinib] + Cc1cc(N2CCOCC2)cc2[nH]c(-c3c(NC[C@@H](O)c4cccc(Cl)c4)cc[nH]c3=O)nc12 [BMS536924] (first compound 5 µM, partner dose 1 µM), 108%; for `N#CC[C@H](C1CCCC1)n1cc(-c2ncnc3[nH]ccc23)cn1` [ruxolitinib] + C=CCn1c(=O)c2cnc(Nc3ccc(N4CCN(C)CC4)cc3)nc2n1-c1cccc(C(C)(C)O)n1 [MK1775] (first compound 5 µM, partner dose 0.1 µM), 57.2%. For `N#CC[C@H](C1CCCC1)n1cc(-c2ncnc3[nH]ccc23)cn1` [ruxolitinib] + C[C@@H]1CCN(C(=O)CC#N)C[C@@H]1N(C)c1ncnc2[nH]ccc12 [CP690550] (first compound 5 µM, partner dose 5 µM) the value was 144%; for `CC[C@]1(O)C[C@H]2CN(CCc3c([nH]c4ccccc34)[C@@](C(=O)OC)(c3cc4c(cc3OC)N(C=O)[C@H]3[C@@](O)(C(=O)OC)[C@H](OC(C)=O)[C@]5(CC)C=CCN6CC[C@]43[C@@H]65)C2)C1` [vincristine] + CN(C)S(=O)(=O)c1ccc2c(c1)/C(=C/c1cc3c([nH]1)CCCC3)C(=O)N2 [SU6656] (first compound 0.0005 µM, partner dose 2 µM), 32%; for `Cc1cc(Nc2cc(N3CCN(C)CC3)nc(Sc3ccc(NC(=O)C4CC4)cc3)n2)n[nH]1` [Tozasertib] + Cc1cc(N2CCOCC2)cc2[nH]c(-c3c(NC[C@@H](O)c4cccc(Cl)c4)cc[nH]c3=O)nc12 [BMS536924] (first compound 0.03 µM, partner dose 1 µM), 50.7%. In turn, `N#CC[C@H](C1CCCC1)n1cc(-c2ncnc3[nH]ccc23)cn1` [ruxolitinib] + Cn1c(Nc2ccc(C(F)(F)F)cc2)nc2cc(Oc3ccnc(-c4ncc(C(F)(F)F)[nH]4)c3)ccc21 [CHIR265] (first compound 5 µM, partner dose 0.4 µM) registered a cell count of 38.2%. For `CC[C@]1(O)C[C@H]2CN(CCc3c([nH]c4ccccc34)[C@@](C(=O)OC)(c3cc4c(cc3OC)N(C=O)[C@H]3[C@@](O)(C(=O)OC)[C@H](OC(C)=O)[C@]5(CC)C=CCN6CC[C@]43[C@@H]65)C2)C1` [vincristine] + Cc1ccc(NC(=O)c2cccc(N(C)C)c2)cc1NC(=O)c1ccc(O)cc1 [ZM336372] (first compound 0.0005 µM, partner dose 10 µM) the value was 95.5%.

The values are drawn from the supplement of paper PMC4604168 (melanoma cell lines).
